PubChem BioAssay AID485344 (National Center for Advancing Translational Sciences (NCATS), 2010)
Out of some 340,000 compounds screened, about 6,900 (2%) were called active. Rule as the data show it: active = inhibition above about 30%; inactive = below that, where a call was filed. The entries are a selection whose mix differs from that of the whole data set. Where no call is shown, the source filed none.

Biological target: D(2) dopamine receptor (Homo sapiens) (UniProt P14416)
Assay: HTS Assay for Allosteric Antagonists of the Human D2 Dopamine Receptor: Primary Screen for Antagonists; also: 0% is about no effect
Settings: HEK293 TREx D2 cells, calcium flux, dopamine EC80; at 10 µM; stronger effect = higher value
Method in brief: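 Cells plated overnight at 30 C with tetracycline; no-wash calcium dye, 30–90 min RT; 10 s baseline; compound pinned; 180 s read; EC80 dopamine added; another 180 s read.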

Chain of UniProt P14416 (P14416 whole entry, looked up): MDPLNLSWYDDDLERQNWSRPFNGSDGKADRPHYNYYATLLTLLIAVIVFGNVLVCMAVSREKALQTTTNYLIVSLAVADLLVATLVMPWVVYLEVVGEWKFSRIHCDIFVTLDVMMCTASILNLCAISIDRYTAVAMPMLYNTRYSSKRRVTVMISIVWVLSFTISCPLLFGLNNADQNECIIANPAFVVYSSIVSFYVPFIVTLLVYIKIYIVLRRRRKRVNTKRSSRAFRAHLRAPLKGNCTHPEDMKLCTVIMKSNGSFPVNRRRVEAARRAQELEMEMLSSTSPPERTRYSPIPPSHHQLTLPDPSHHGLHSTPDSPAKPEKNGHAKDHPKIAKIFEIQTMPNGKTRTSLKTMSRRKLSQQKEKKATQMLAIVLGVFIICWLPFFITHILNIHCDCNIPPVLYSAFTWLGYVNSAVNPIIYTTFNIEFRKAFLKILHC

SMILES | inhibition
Cc1cc(C(=O)NC2CCN(Cc3ccccc3)CC2)n[nH]1 | active: 74.1%
CCOc1ccc(C(=O)c2cn(Cc3ccc(F)cc3)c3ccc(F)cc3c2=O)cc1 | -13.2%
Cc1ccc(CN(Cc2ccco2)C(=O)c2oc3ccc(C)cc3c2C)cc1 | 0.715%
Cc1cccc(-n2ncc3c(N4CCCCCC4)ncnc32)c1 | 22.3%
CC(C)(C)C(=O)OC1=CN(Cc2ccccc2)S(=O)(=O)c2ccccc21 | -8.68%
CCOC(=O)c1ccc(-c2ccc(/C=C(\C#N)C(=O)Nc3ccc(C)cc3OC)o2)cc1 | -3.16%
CCCNC(=O)CN1CCN(c2ncc(NC(=O)c3ccc(Cl)cc3)cc2C(=O)O)CC1 | -6.79%
CCCCN1C(=O)C(O)(c2c(C)[nH]c3ccccc23)c2ccccc21 (configuration not stated) | -12.1%
CCCOc1ccccc1C1Oc2nc(SC)nnc2-c2ccccc2N1C(C)=O (configuration not stated) | 25%
COc1ccc(NC(=O)CCN2CCN(c3ccccc3F)CC2)c(OC)c1 | active: 85.7%
Cc1sc2ncnc(SCC(=O)NC3CCCC3)c2c1C | active: 31.8%
CS(=O)(=O)N1CCc2cc(C(=O)Nc3cccc(F)c3)ccc21 | 20.5%
Cc1ccc(C)c(Cn2c3ccccc3c3cnn(CC(=O)NC(C)c4ccccc4)c(=O)c32)c1 (configuration not stated) | 8.27%
COc1ccccc1CC(=O)Nc1ccc2nc(N3CCC(C)CC3)cc(C)c2c1 | -2.7%
O=C(c1ccc(F)cc1)C1CCN(Cc2cn[nH]c2-c2ccc(F)cc2)CC1 | active: 93.9%
COc1cccc2sc(N3CCN(C(=O)CCS(=O)(=O)c4ccc(F)cc4)CC3)nc12 | 2.61%
Cc1ccc(CNC(=O)C(=O)NCC(c2cccnc2)N2CCN(c3ccccc3F)CC2)cc1 (configuration not stated) | -1.28%
Cc1ccsc1CN(C(=O)c1oc2ccccc2c1C)C1CCS(=O)(=O)C1 (configuration not stated) | 1.68%
CCCS(=O)(=O)N1CCC(n2c(C(F)(F)F)nc3cccnc32)CC1 | -1.21%
Cc1ccc(NC(=O)Cn2nnc(C(=O)NCCc3ccccc3)c2N)cc1C | -6.47%
Cc1oc2ncn(C)c(=O)c2c1C(=O)NCCCN(Cc1ccccc1)C(C)C | -8.6%

SMILES | inhibition
Cc1ccc(C(=O)Nc2nc(-c3ccccc3)ns2)cc1 | 19.5%
CCn1c(=O)c2sccc2n2c(CCC(=O)Nc3ccc(OC)c(Cl)c3)nnc12 | 15.1%
CCc1ccc(C2NC(=O)c3[nH]nc(-c4cccc(OC)c4)c32)cc1 (configuration not stated) | 8.9%
CC(C)Oc1ccc(CNC(=O)C2CCN(c3nc4ccccc4n(C)c3=O)CC2)cc1 | -19.4%
CCc1ccc(CNC(=O)CCn2c(=O)c3cccn3c3ccc(F)cc32)cc1 | 14.9%
CCOc1ccccc1CNC(=O)c1cc(-c2ccc(C)c(C)c2)nc2ccccc12 | 18.3%
CCOc1ccccc1NC(=O)COc1ccc(S(=O)(=O)NC2CCCCC2)cc1 | 7.93%
O=C(Nc1ccc(F)c(F)c1)C1CCCN1S(=O)(=O)c1cccc2nsnc12 (configuration not stated) | -17.3%
COc1ccc(S(=O)(=O)N(CC(=O)Nc2cccnc2)c2ccc(C)cc2)cc1OC | 5.76%
CCc1ccc(-n2c(CCC(=O)O)ccc2-c2ccc(F)cc2)cc1 | 8.6%
COc1cc2c(=O)n(CCC(=O)NCC3CCCO3)c(=O)n(CC(=O)Nc3ccc(F)cc3)c2cc1OC (configuration not stated) | 7.25%
Cc1ccc(O)c(NC(=O)CCS(=O)(=O)c2nc(-c3ccc4c(c3)OCO4)cc(C(F)(F)F)n2)c1 | 3.9%
Cc1ccc(C)c(NC(=O)CCCN2C(=O)C(c3ccccc3)Oc3cccnc32)c1 (configuration not stated) | 6.54%
Nc1c(C(=O)Nc2ccc(Br)cc2)sc2nc(-c3ccncc3)ccc12 | 14.8%
COc1cccc(NC(=O)c2ccc(-c3nc(COc4ccc(C)cc4)c(C)o3)cc2)c1 | -4.71%
Cc1ccc2c(c1)c1c(c(=O)n(-c3ccccc3C)c(=O)n1CC(=O)NCC1CCCO1)n2C (configuration not stated) | -2.4%
CC(=O)Nc1ccc(C(=O)CSc2nnc3ccc4ccccc4n23)cc1 | -4.25%
CCOC(=O)c1cc2c(=O)n3ccccc3nc2n(C)c1=NC(=O)c1cc2ccccc2o1 | -7.06%
CCOc1ccc(NC(=O)NCCN2CCN(c3ccccc3F)CC2)cc1 | active: 78.8%
O=S(=O)(NCc1ccc(Cl)cc1)c1ccc(N2CCCCS2(=O)=O)cc1 | -28%
CCOC(=O)c1cccc(NC(=O)c2cc3cc4ccc(C)cc4nc3s2)c1 | 1.21%

SMILES | inhibition
CSc1ccc(CCNC(=O)c2cc3c(-c4ccccc4F)nn(C)c3s2)cc1 | 7.92%
Cc1cccc(NC(=O)Cn2c(=O)n(CCC(=O)N3CCc4ccccc4C3)c(=O)c3ccccc32)c1 | -8.05%
Nc1c(C(=O)NCc2ccccc2)nnn1Cc1cccc(Br)c1 | 8.5%
CCOC(=O)c1cc(-c2ccc(F)cc2)n(CCC(=O)NC2CCCCC2)c1C | 1.2%
Cc1cc(C)cc(Nc2nc3c(S(=O)(=O)c4cccc(Cl)c4)nnn3c3ccsc23)c1 | 8.55%
Cc1cc(C)cc(Nc2cc(C(=O)NCc3ccccc3)c3ccccc3n2)c1 | -3.99%
CCn1c(CN2CCCCC2)nc2cc(S(=O)(=O)N3CCCCC3)ccc21 | active: 54.7%
O=C(Nc1ccccc1C(F)(F)F)c1cc2ccccn2n1 | -2.3%
CCOc1cc(CNCCSc2nnnn2-c2ccccc2)ccc1OC | -26.6%
CCOC(=O)C1CCN(C(c2ccc(F)cc2)c2sc3nc(-c4ccco4)nn3c2O)CC1 (configuration not stated) | -16.6%
Cc1cc(C)c(NC(=O)C(C)n2nnc3sc(-c4ccccc4)cc3c2=O)c(C)c1 (configuration not stated) | 18.1%
CN(C)C(=O)c1c(NC(=O)c2ccco2)sc2c1CCCCC2 | active: 34.9%
CCOc1ccc(C(=O)c2cn(CC(=O)Nc3cc(OC)ccc3OC)c3cc(OC)c(OC)cc3c2=O)cc1 | -12%
COc1ccc(NC(=O)CCSc2nc(-c3ccco3)cc(C(F)(F)F)n2)cc1OC | -1.84%
CCc1ccc(OCCSc2nc(-c3cccc(C)c3)nc3cc(=O)[nH]n23)cc1 | -5.04%
O=C(CN1C(=O)C2(SCC(=O)N2c2ccc(F)cc2)c2ccccc21)NCCc1ccccc1 (configuration not stated) | 1.08%
COc1ccc(NCc2nnc3n2CCCCC3)c(OC)c1 | 2.55%
COc1cccc(CN2CCN(c3ncccn3)CC2)c1OC | active: 60.3%
COc1ccc(C)cc1NC(=O)NCc1ccc(F)cc1 | active: 52.8%
CC(=O)c1c(C)oc2ccc(N(C(=O)c3ccncc3)S(=O)(=O)c3ccc(C)cc3C)cc12 | -2.72%
